# The whole screen tested about 310,000 compounds, of which about 14,000 (4.5%) showed an effect of 50% or more. Effects have a minus sign here. The list shows a part of the results.
# Biological target: human ether-à-go-go-related gene (hERG) potassium channel (human, UniProt Q12809)
# Experiment: primary screen, population patch clamp on CHO cells stably expressing hERG
# 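Note: peak tail current of the secondary pulse compared with the same well before compound.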
# human ether-à-go-go-related gene (hERG) potassium channel, sequence (Q12809 whole entry, looked up): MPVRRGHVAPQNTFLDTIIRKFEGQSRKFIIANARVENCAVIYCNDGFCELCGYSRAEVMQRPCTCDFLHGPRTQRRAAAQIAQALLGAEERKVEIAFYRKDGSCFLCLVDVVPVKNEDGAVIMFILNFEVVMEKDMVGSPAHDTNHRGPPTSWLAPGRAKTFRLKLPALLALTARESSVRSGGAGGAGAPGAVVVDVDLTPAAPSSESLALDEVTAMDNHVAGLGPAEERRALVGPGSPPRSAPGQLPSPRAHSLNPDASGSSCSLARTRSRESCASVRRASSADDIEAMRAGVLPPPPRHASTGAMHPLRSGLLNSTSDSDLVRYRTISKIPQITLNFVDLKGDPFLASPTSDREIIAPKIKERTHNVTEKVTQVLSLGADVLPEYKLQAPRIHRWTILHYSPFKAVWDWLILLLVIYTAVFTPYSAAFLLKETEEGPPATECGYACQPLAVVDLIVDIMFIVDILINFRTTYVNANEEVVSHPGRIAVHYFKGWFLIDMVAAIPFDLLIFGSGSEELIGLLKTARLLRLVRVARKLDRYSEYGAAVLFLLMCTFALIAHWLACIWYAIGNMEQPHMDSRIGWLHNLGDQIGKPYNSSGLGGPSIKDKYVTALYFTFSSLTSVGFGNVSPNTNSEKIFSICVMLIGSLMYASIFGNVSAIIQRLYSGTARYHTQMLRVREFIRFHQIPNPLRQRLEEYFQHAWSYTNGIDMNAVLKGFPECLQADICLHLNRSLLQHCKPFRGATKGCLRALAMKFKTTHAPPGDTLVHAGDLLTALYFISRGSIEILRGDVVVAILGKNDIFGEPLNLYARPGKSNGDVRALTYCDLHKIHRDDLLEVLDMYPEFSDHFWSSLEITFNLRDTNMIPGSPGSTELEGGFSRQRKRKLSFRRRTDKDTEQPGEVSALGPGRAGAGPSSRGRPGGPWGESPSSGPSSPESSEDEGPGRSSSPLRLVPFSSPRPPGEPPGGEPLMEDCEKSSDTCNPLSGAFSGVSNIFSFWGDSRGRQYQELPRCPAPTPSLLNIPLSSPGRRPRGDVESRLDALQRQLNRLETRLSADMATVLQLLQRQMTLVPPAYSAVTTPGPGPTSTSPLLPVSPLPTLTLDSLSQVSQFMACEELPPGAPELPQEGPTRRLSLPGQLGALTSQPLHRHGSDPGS
row,Structure (SMILES),"hERG current change (%, negative = inhibition) at 10uM"
1,CC(C)OC(=O)c1c2nc3ccccc3nc2n2c1[nH]c(=O)c1ccccc12,5.58%
2,O=c1cc(Nc2ccc3c(c2)OCCO3)[nH]c(=O)n1-c1ccc(Cl)cc1,-0.327%
3,O=C(c1ccc(F)cc1)C1CCN(Cc2ccc(F)cc2)CC1,-47.7%
4,Cc1cc(C(=O)CSc2n[nH]c(N)n2)c(C)n1-c1ccccc1,-13.8%
5,Clc1ccc2nc(N3CCCCC3)[nH]c2c1,-26.9%
6,Cc1nc(SCC(=O)Nc2ccccc2C(F)(F)F)c2c(=O)n(C)c(=O)n(C)c2n1,-2.58%
7,C/C(=N\NC(=O)c1cc(-c2ccco2)nc2ccccc12)c1cccnc1,-5.33%
8,c1cc(OCCCN2CCCCC2)ccc1CN1CCCCC1,14.1%
9,CC(=O)c1c(C)[nH]c(C(=O)OCc2nc3ccsc3c(=O)[nH]2)c1C,-13.6%
10,COc1ccc(N2CCN(C(=O)COC(=O)/C=C/c3ccc(C(F)(F)F)cc3)CC2)cc1,-7.24%
11,COc1ccc(NC(=O)CC2Sc3ncnn3C2=O)cc1 (stereo not drawn),13.8%
12,CCOc1ccc(NC(=O)CSc2nc3ccccc3nc2N2CCCC2)cc1,-39.3%
13,Cc1ccc(-c2nnc(N(C)C(=O)c3cccnc3)s2)cc1,-17.4%
14,CC(c1ccccc1)N1CCn2c(nc3cc(NC(=O)NC4CCCCC4)ccc32)C1 (stereo not drawn),-39.2%
15,O=C(O)C(Cc1c[nH]c2ccccc12)N1CCS(=O)(=O)CC1 (stereo not drawn),16.3%
16,Cc1c(Cc2ccccc2)c(=O)oc2cc(OCc3nn[nH]n3)ccc12,-1.62%
17,O=c1c2oc3ccccc3c2ncn1Cc1ccc(F)cc1,18.9%
18,CC1CCCN(S(=O)(=O)c2ccc(C(=O)Nc3nnc(-c4ccco4)o3)cc2)C1 (stereo not drawn),-9.05%
19,O=C(Nc1ccccc1)c1cc(S(=O)(=O)N2CCCCC2)ccc1N1CCOCC1,1.08%
20,O=C(Nc1ccccc1)/C(=C/c1ccc(O)cc1)NC(=O)c1ccco1,-3.7%
21,Cc1ccc(NC(=O)CSc2nnc(-c3ccccc3Br)o2)cc1C,-7.67%
22,O.c1ccc(-c2cc(-c3nc4ccccc4[nH]3)c3ccccc3n2)cc1,14.4%
23,O=C(Nc1ccc(F)cc1)c1ccc(CSc2ccc(Cl)cc2)o1,7.38%
24,COc1ccc(C(=O)NNC(=O)CSc2nnc(-c3ccc(O)cc3)n2C)cc1,5.16%

# Source: article PMC4336329 (PLoS ONE, 2015)
